Among all 420,000 compounds or so, about 50,000 (12%) were called active. Inconclusive means that the source gave no clear call. Such entries were picked first, then a sample of the others. Calls follow the shape of the dose curve; as a rule, active = well fitted inhibition curve with a large enough effect; inconclusive = small, poorly fitted or top-dose-only effect; inactive = flat fitted curve, though single readings scatter. No potency is given beside an inconclusive call; the fits are too rough.
assay: qHTS for Inhibitors of human tyrosyl-DNA phosphodiesterase 1 (TDP1): qHTS in cells in presence of CPT; details: chicken DT40 Tdp1-/-;hTDP1 cells + 20 nM CPT, ATP luminescence, 48 h; activity change, negative = growth inhibition: at 46.2 µM (top of the series) unless noted; also: nearly all actives have a fitted effect of over 55% in size
How it was run: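 Chicken DT40 Tdp1-/- cells stably complemented with human TDP1 were seeded at 400 cells/well in medium containing 20 nM camptothecin, exposed to pin-transferred compounds, and grown at 37 °C for at least 48 hr. Viability was read as ATP luminescence.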
% is scaled to controls: 0 for no effect and ±100 for the full control effect; potency is read from the fitted curve at half-maximal effect; tags tell the direction and shape of the fitted curve.

SMILES	Potency	activity change, negative = growth inhibition
COc1ccc(OC)c2[nH]c(=O)c(CCNC(=O)c3cc4ccccc4o3)cc12	active: 14.6 µM	–
COc1ccc(/C(C)=N/NC(=O)c2sccc2-n2cccc2)cc1	inactive	–
CC(C)=CCC/C(C)=C\COc1c2ccoc2cc2oc(=O)ccc12	inconclusive [inhibitor, single point]	–
Cc1cc2n(n1)C(c1ccccc1Cl)Nc1ccccc1-2 (stereo not given)	–	inconclusive: -34.8% [inhibitor]
S=C(NC1CCCCC1)NC1CC2CCC(C1)N2Cc1ccccc1 (stereo not given)	inconclusive [inhibitor, single point]	–
COc1ccc(Nc2ccc(S(=O)(=O)N3CCCCCC3)cc2[N+](=O)[O-])cc1	inconclusive [inhibitor, single point]	–
COc1ccc2c(c1)Sc1ccccc1N2CCN(C)C	–	inconclusive: -32.6% [inhibitor]
Cc1ccc(C)c(S(=O)(=O)N2CCN(CC(=O)Nc3ccc([N+](=O)[O-])cc3)CC2)c1	active: 14.6 µM	–
CCCSc1nnc2nc3c(nn12)c1ccccc1n3C	inconclusive [inhibitor, single point]	–
CCOC(=O)c1cccc(NS(=O)(=O)c2ccc(-c3cnc(C4CC4)o3)cc2)c1	active: 2.31 µM	–
NC(=O)c1nc(Nc2ccccc2)sc1NC(=O)c1ccccc1Br	inconclusive [inhibitor, partial curve]	–
O=C1Nc2ccc(Cl)cc2C(C#CC2CC2)(C(F)(F)F)O1 (stereo not given)	inconclusive [inhibitor, single point]	–
CC(C)(C)c1ccc(OCC(=O)Nc2ccc(S(=O)(=O)Nc3ncccn3)cc2)cc1	inactive	–
COc1cc(CNC(=O)c2cc(-c3cc(Cl)ccc3C)n[nH]2)cc(OC)c1	active: 25.9 µM	–
CCCNC(=S)N1CC2(C)CN(C(=O)C(=O)OCC)CC(C)(C1)C2=O	inactive	–
COc1cc2c(cc1OC)C(c1cc(-c3cc(Cl)ccc3Cl)oc1C)=NCC2	active: 1.26 µM	–
CCOC(=O)c1cccc(NC(=O)c2cc3c(-c4cccc(OC)c4)nn(C)c3s2)c1	active: 16.4 µM	–
Cc1cc(/C=C2/SC(=S)N(c3cccc(Cl)c3)C2=O)c(C)n1-c1cccnc1	active: 2.59 µM	–
O=C(Nc1ccc2c(c1)OCO2)c1cc(C2CCCN(C(=O)CCCc3ccccc3)C2)on1 (stereo not given)	active: 18.4 µM	–
Cc1nc2c(c(C)c1CCC(=O)NCc1ccccc1)c(=O)n(C)c(=O)n2C	inactive	–
COc1ccc(CCNC(=O)CCCCCNc2nc(=S)[nH]c3ccccc23)cc1OC	inconclusive [inhibitor, partial curve]	–
Cc1ccc(N(C(=O)c2snc(C(N)=O)c2N)C(C(=O)NCC2CCCO2)c2ccc(C)o2)c(C)c1 (stereo not given)	active: 18.4 µM	–
O=C(Cc1ccc(F)cc1)N1CCC(N2CCC(C(=O)N3CCOCC3)CC2)CC1	inactive	–
COCC(=O)Nc1ccc(S(=O)(=O)N2CCCC2)cc1	inactive	–
CC(C)C(=O)NC(c1ccc(Cl)cc1Cl)c1ccc2cccnc2c1O (stereo not given)	active: 6.51 µM	–

SMILES	Potency	activity change, negative = growth inhibition
Cc1cccc(NC(=O)C2CCC(CNS(=O)(=O)c3csc(C(N)=O)c3)CC2)c1C (stereo not given)	inactive	–
COc1ccc(-n2c(=O)c3ccccc3n(Cc3ccc(F)cc3)c2=O)cc1OC	inactive	–
Cc1ccc(S(=O)(=O)c2nc(S(C)(=O)=O)sc2N(C)Cc2ccccc2)cc1	inconclusive [inhibitor, single point]	–
Cn1c(N)c(C(=O)COC(=O)C2(c3ccc(F)cc3)CCCC2)c(=O)n(C)c1=O	inconclusive [inhibitor, single point]	–
CN(C(=O)COc1nnc(-c2cccs2)c(-c2cccs2)n1)c1ccccc1	active: 23.1 µM	–
COc1ccc(S(=O)(=O)N2CCCCC2)cc1NC(=O)CSc1nccn1C	inactive	–
O=S(=O)(NCc1csc(-c2ccccc2)n1)c1ccc(Cl)s1	inconclusive [inhibitor, single point]	–
Cc1c(C)n(Cc2ccccc2)c2ccc(C(=O)OCCCN(C)C)cc12	inconclusive [inhibitor, partial curve]	–
O=C(CNS(=O)(=O)/C=C/c1ccccc1)OCC(=O)N1CCC(Cc2ccccc2)CC1	inactive	–
CC1CN(C(=O)c2ccccc2)OC(c2ccc3c(c2)OCO3)O1 (stereo not given)	inactive	–
N#Cc1c(N)n(-c2cccc(Cl)c2)c2nc3ccccc3nc12	inactive	–
CCCNC(=O)C1(C)CCCN(Cc2ccc3ccccc3c2)C1 (stereo not given)	inconclusive [inhibitor, single point]	–
CC1CC(NC(=O)C2(C)CC2(Cl)Cl)CC(C)(C)C1 (stereo not given)	–	inconclusive: -30.1% [inhibitor]
Cc1ccccc1NC(=O)C1C2CCCC1C2c1ccccc1 (stereo not given)	active: 18.4 µM	–
COC(=O)C1CCN(C2CN(Cc3ccccc3)S(=O)(=O)C2)CC1 (stereo not given)	inactive	–
COC(=O)CC(NC(=O)Nc1ccccc1F)c1ccc2c(c1)OCO2 (stereo not given)	inactive	–
CS(=O)(=O)c1ccc(C(=O)OCc2nnc(-c3ccc(Cl)cc3)o2)cc1[N+](=O)[O-]	active: 3.26 µM	–
COc1ccc(-n2c(=S)[nH]c3cc(C(=O)NCc4ccccc4)ccc3c2=O)c(OC)c1	inconclusive [inhibitor, partial curve, poor fit]	–
COc1ccc(Nc2nc(N/N=C/c3ccc(N(C)C)cc3)nc(C)c2[N+](=O)[O-])cc1	inconclusive [inhibitor, partial curve]	–
C=CCn1c(C)cc(C(=O)COC(=O)c2n[nH]c(=O)c3ccccc23)c1C	inconclusive [inhibitor, single point]	–
Cc1c(S(=O)(=O)N2CCCC(C(=O)O)C2)cnn1C (stereo not given)	inactive	–
CC(C)OP(=O)(OC(C)C)C(O)c1cccc([N+](=O)[O-])c1 (stereo not given)	inactive	–
CCOC(=O)COc1ccccc1C1C(C(=O)OC)=C(C)NC2=C1C(=O)c1ccccc12 (stereo not given)	inconclusive [inhibitor, partial curve]	–
COc1cc(C(CC(=O)Nc2ccccn2)N2Cc3ccccc3C2=O)cc(OC)c1OC (stereo not given)	inactive	–
O=C(NCCCc1nc2ccccc2n1Cc1c(F)cccc1Cl)C1CCCCC1	inactive	–

SMILES	Potency	activity change, negative = growth inhibition
O=C(COc1ccccc1Cl)Nc1nnc(S(=O)(=O)N2CCCCCC2)s1	inconclusive [inhibitor, single point]	–
O=C(CCN1C(=O)/C(=C/c2ccc(F)cc2)SC1=S)NCCc1ccc(O)cc1	inactive	–
CCOC(=O)c1c(NC(=O)CSc2nnc(-c3c[nH]c4ccccc34)n2CC)sc2c1CCCC2	inconclusive [inhibitor, single point]	–
COc1cc(NC(=O)NC(C)(C(F)(F)F)C(F)(F)F)cc(OC)c1OC	inactive	–
CN1C(=O)C2(C(C#N)=C(N)N(c3cc(Cl)cc(Cl)c3)C3=C2C(=O)CCC3)c2ccccc21 (stereo not given)	inconclusive [inhibitor, partial curve]	–
Nc1cc2c(cc1Cl)-c1ccccc1C2=NO	inconclusive [inhibitor, single point]	–
O=C(C[n+]1cccc(NC(=O)c2ccccc2)c1)c1cccc([N+](=O)[O-])c1	inconclusive [inhibitor, single point]	–
CC1(C)OC2CC3C4CC(F)C5=CC(=O)C=CC5(C)C4(F)C(O)CC3(C)C2(C(=O)CO)O1 (stereo not given)	inactive	–
CC(C)(C)NC(=S)NNC(=O)[C@H]1C[C@@H]1c1ccccc1	inconclusive [inhibitor, single point]	–
Cc1ccc(Cl)cc1NC(=O)Cc1ccc(-n2c(C)nc3cccnc32)cc1	inconclusive [inhibitor, single point]	–
CCOc1ccc(-n2c(=O)c3c(C)c(C)sc3n(CC(=O)N(CC)Cc3ccccc3)c2=O)cc1	active: 18.4 µM	–
COc1cc(NC(=O)Nc2cccc(-c3noc(C)n3)c2)cc(OC)c1OC	inconclusive [inhibitor, single point]	–
Cc1ccccc1-n1c(SCC(=O)NCC2CCCO2)nnc1-c1ccncc1 (stereo not given)	inactive	–
CC(=O)c1ccc(NC(=S)NCCc2ccccn2)cc1	inactive	–
CCCNC(=S)N1CCC(Cc2ccccc2)CC1	inconclusive [inhibitor, single point]	–
COc1ccccc1Nc1nnc(SCC(=O)c2cc(C)n(CC3CCCO3)c2C)s1 (stereo not given)	inconclusive [inhibitor, single point]	–
CCOc1ccccc1NC1c2ccccc2C(=O)N1Cc1ccco1 (stereo not given)	inconclusive [inhibitor, single point]	–
CCc1ccc(CNC(=O)C2Cc3cc(S(=O)(=O)N4CCCCCC4)ccc3N2C(C)=O)cc1 (stereo not given)	active: 23.1 µM	–
COc1ccc2c(c1)CC(C(=O)Nc1cc(Cl)ccc1C)CO2 (stereo not given)	inconclusive [inhibitor, single point]	–
Cc1ccc(NCc2nnc(SCC(=O)N3c4ccccc4Sc4ccccc43)o2)c(C)c1	inconclusive [inhibitor, single point]	–
Cc1cc(C(=O)c2ccc3ccccc3c2)c(C)o1	inactive	–
O=c1[nH]c2ccccc2nc1/C=C(\O)c1cccs1	inactive	–
Cc1cc2ncn(-c3ncnc4sc5c(c34)CCC(C)C5)c2cc1C (stereo not given)	inconclusive [inhibitor, single point]	–
CCOc1ccc(CNC(=O)CCCn2nc(CC)n3c(cc4occc43)c2=O)cc1	inconclusive [inhibitor, single point]	–
Cc1ccc(C2CN(C)C3(C(=O)Nc4ccccc43)C23COc2ccccc2C3=O)cc1 (stereo not given)	inconclusive [inhibitor, single point]	–
